Article PMC10726135
The list shows a part of the results. At the low end of the ranking, values are background and their order means little. The protein was read in a cell extract, so binding may be indirect.

molecular target: T1, HNF4alpha8 (COS-7 nuclear extract) (UniProt P41235-5); test: protein-binding microarray; conditions: COS-7 nuclear extract on double-stranded Agilent 4x180k PBM; binding buffer, salt, pH and temperature not given; high values mean tight binding; double strand, one strand shown; sequences stand for … in …GCCTAGGGAGATTAGAGTATCGGTCGA
T1 sequence: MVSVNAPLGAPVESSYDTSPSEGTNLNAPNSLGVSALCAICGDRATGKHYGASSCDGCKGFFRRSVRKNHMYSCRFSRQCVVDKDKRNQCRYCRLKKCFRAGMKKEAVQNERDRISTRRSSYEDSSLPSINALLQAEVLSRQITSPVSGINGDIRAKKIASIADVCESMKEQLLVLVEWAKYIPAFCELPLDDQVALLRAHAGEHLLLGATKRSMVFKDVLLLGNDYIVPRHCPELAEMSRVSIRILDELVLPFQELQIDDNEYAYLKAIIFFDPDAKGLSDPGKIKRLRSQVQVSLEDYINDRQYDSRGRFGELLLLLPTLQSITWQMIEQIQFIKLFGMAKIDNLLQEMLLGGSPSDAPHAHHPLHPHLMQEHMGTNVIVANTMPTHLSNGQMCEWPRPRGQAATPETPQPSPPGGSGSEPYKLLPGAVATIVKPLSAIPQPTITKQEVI

Row | Sequence | binding signal (log2 normalized intensity)
1 | ATTACCTGTTCTAAGCACCTCTGCTTATCT | -0.361
2 | TGCACATGAGTTCCCGGCAAGCCGACTTAC | -1.36
3 | GCCGCCACCCGGTTGGCGCCAATACCTGCC | -1.32
4 | TGCAAACTCCAGCATGAGGGGGTGGACTGA | 1.16
5 | AAACATGCGCATGTTCCCACGAAACCCTAA | 1.59
6 | TCAAATGCACCAAAAATATCTTTGTCTCAG | -0.256
7 | GCGCCACTGCGTCCAGCCACAATTAATGTA | -1.18
8 | GGCGCAATCTCAGCTCAATCTCTGTCGCCC | -1.34
9 | TCTTTAAGACAAGTGTCCCTCAAACTGAAG | 0.792
10 | GCTGAGTCCCTGCTTGATAAGACTGACAAC | -1.36
11 | TGGTAGCATGGCTCAGTCCAAGTCCAAAGG | 5.2
12 | CTTTGACCATCCACGGATGCATGATTGCTC | -0.923
13 | AAGCTCATGAAGCTTCCCCTTTAACCAATA | 1.17
14 | GCACACCGGACTGCGTTTTTTCCGAACGCC | -1.32
15 | AGAGGGGAAGGATGAATTTAAAAAATTCTA | -1.34
16 | TGGTTTTTGTTGTTGAGCAAATCATAGTGT | 2.19
17 | TATTGTGAGATTACGTAAGTGAAAGTACAC | 1.89
18 | CAAATGATGTCTCTCATTGGAATGAGCCTC | 0.958
19 | TGGCAGTGAAGGAACTATTGGATTCCCCAA | 0.069
20 | TGGGCAGTGCAGTATGCGCTCTGGGAAACA | -1.31
21 | GGAGCAGCCTAGTAAAAGGTAGATACTATA | -1.37
22 | AACCCATGGGAAGCTTCACAAAGGGCTGAG | -1.35
23 | GGAAGAACTGGTTCTGTGGAATTTGTGCTT | 2.39
24 | TTTGAAGCAAAGCCTTTGAGCAGATGGAAG | -1.36
25 | AACATCTGTATTTAACTTTTGGGATCAGCA | 0.892

Row | Sequence | binding signal (log2 normalized intensity)
26 | CCTGTTCTTTTGAGCTGTGGTTAAGACTCA | 0.124
27 | CTCTGCAGAGGCTTCCTCTTTGGTGCAAAG | -1.11
28 | TCCTAGGGAAGAAACATTCTGATCAAATAG | -0.219
29 | CTGCGTAACTTACAGTGCACTTTGACCGCT | 7.74
30 | ATATTTGTGATTTGAAATTTGTCCTGGTCA | 2.06
31 | CTGGCAAAACTGGTCAATATCCACACAAAC | -1.12
32 | GAGATAAGGCAAGTCCCTTCCACCTATGAA | -1.31
33 | CCACATTCTTTTAGTGTGCTCTGGGTCTGT | 2.4
34 | CTGGTACCATGGATGCACTCCATTTACAGA | -0.982
35 | CACACTGCAGCGGCATTCTCTGGTCTGCGG | -1.25
36 | GGTGGGCTCCACCCAGTTCGTGCTTCTTGG | -1.26
37 | TTGCTTCTGCCCCCTGGAGGAGCAAATACT | 2.89
38 | GGATTTTTGCTGAAGACAGGCCAGGGTGAT | 0.0228
39 | ATGGTCTGCTTGATAGCCATCTGGTGGACT | 2.74
40 | AGTAAAGGACAAAGTCAACGGCTCTGCATA | -0.847
41 | CAGGCTCCACCGGATGGATAGGAATTGAGT | -1.28
42 | GGCCAGTTCAGCGCGTCTTAGCACTCACCC | -1.33
43 | AGGTGACAGTTAGGTAAGAGACAAAGGTTG | 2.27
44 | TAAGCACAGGTTTCTGTCCTGGTCACAGTA | 0.983
45 | AGACAACTTAGAATTTCATTTTGCTCTTTG | 1.63
46 | GCTACGCACCAGGCATACTCCTCCTGGCTT | -1.3
47 | AAATTTGTGTGTAACATTTGACTTCCCCAA | 2.47
48 | CTTTTCAGTGCAAGGGACCTAGGTGAGCAG | 1.28
49 | GGGCAGCCCGTGTGGGCGGGTGCAGCTTCC | -0.554
50 | TTTCAGCGTCAATATTTGCTGTCTCTTCCA | -0.725

Row | Sequence | binding signal (log2 normalized intensity)
51 | TAACCATATGTCTTAAGCTAACATGTACAG | 0.602
52 | TCAATAGAGCATGAGAACTTCTTCCAATGA | -0.813
53 | TTGTGAATAAGGATTATCACTGAATCGAGG | 0.035
54 | GGCCAATCCGGCTGGCAGCCGATTGACCTG | 3.35
55 | CCAGTGAGACCCATTTTGGACTTTGACCTC | 11.8
56 | GTTTTTCTTCCGGTCACATACTCTGGAAAT | 1.17
57 | TCTCACTCCAAAGGCTGTTTGCACCGTGTG | -0.092
58 | AGTGACTTAGCAGGATTCTTGCTACAACTG | -1.33
59 | AGGAGAGAGGCCTCTAGATAAACCAAGCCT | -1.31
60 | ACCCTCAGCTCCTCTCCTCCATGGCCTGGG | -0.337
61 | AGTGTTGCTCAAGTCTCCTGTTTTCTTATT | 1.31
62 | AACTACAGGGTCTGTGGTAGATTATCTACA | -0.399
63 | AGAATAGAGGCCTTTGTGCTGACTAAGAGG | -1.08
64 | CAACCTTTGAACTGGGTCTTAATAAGATAA | 3.62
65 | CGATCCTGCCCTTCTGACCTCCCAGGGATA | 3.94
66 | GTGTGAATCGACCTTTAGCACCGTAAGAGA | 6.04
67 | GGAATTTGGGTGATCCTGGTAGCAGGGGTG | 0.433
68 | TCAGGTGTGAACCCAGGCAAAGTCCAGAAA | 3.6
69 | CGTTTGCTCCCATCCCCCCAAAGGCTCTCT | 4.58
70 | TCACCATCCCTGTTGCCTCATCTGAAAAAA | 0.207
71 | ACCCTGACCTGTCAAGCAATGATCTTCATG | 0.201
72 | ACGAGGTGAGAGGCGGAACAAGGCTGAAGG | -1.39
73 | GGGAAGGGAGCAGTGGGGACGCCTTCCCCT | -1.28
74 | GCATCAGGGTCCACAAGGGTTTAAATCTGA | 0.675
75 | CTAATGCCTGGGAAAATGTTGATTACGTGT | 1.08

Row | Sequence | binding signal (log2 normalized intensity)
76 | GACCTTGTCATACTGGTTGAATGGACGGAC | 2.4
77 | GCTTGGAGCCCCTTTGGAGGGGAAGCTGGG | -1.33
78 | CTGGGGACCCGTCGCTGCTGCACACTTCCG | -1.29
79 | CCTTTGGACTGTCCTTTGCTAGATTCTTTC | 2.13
80 | CCACCTTCCCGGCCTGGCCACTCCGTTTGC | -1.15
81 | TTCAACTATTCCTCGACCTTCGGCTGGGGA | 1.88
82 | GCACCTGTTTCTGGAGAATGCTGTCCTGCC | 0.0974
83 | TTCAAAGGGAAAAAATAATCAGCTTAAGCA | -1.34
84 | ACGTGAGGGCAGCATAATCACATACAGGCC | -1.42
85 | GAACCTGTGCTTCTGGTTCTGGACTAAGAA | 1.04
86 | AAAATAGTGACCCTGTCTCTCAGTCTCTGT | 1.45
87 | AATCCCCGAATGTCCAGACTGTGCATACCA | 1.62
88 | CAAACATTACTGGCACACAGCAGATTACAT | -0.928
89 | ATGCCCCAAATGACGCTTTAAGTAGGCACT | -0.0679
90 | CTAAAATATTCACTATCTGATCCTTTACAG | 0.871
91 | TGGCCCTGATTTCAAAGTTCAGTTTGATTA | 2.7
92 | GGAGGACAGACTCTGGGAGATAAAGCAGAG | -1.27
93 | AGGATCGCTTGAGCCTGGGAGGCAAAGGTT | 3.68
94 | CTCACGCGCTCCCTGTTTAGAATTCTGCCT | -1.31
95 | ATAGAGAGTTGGGAGGGAACAGTCCAGAGT | 0.144
96 | AGAGAGCCGGAAACTCCACCTTCAGATCAT | -1.4
97 | GAATCTACAGAATTCTCATGGAGGACTTTG | 3.31
98 | GGAGAATGGCAAGAGATAAGGGTGGCCATC | -0.994
99 | TGGGCTAAAAAGGAAGCTGTGTGTGTGAGT | 1.82
100 | TCCTTCAGCGTGAACTTTGACATGAGAGAA | 4.21

Row | Sequence | binding signal (log2 normalized intensity)
101 | CTTGACGCTAACTTCCAGATCAAAGGACAT | 1.16
102 | AGGTTCCTCGCCTATGGTATGTATGGAATG | 2.2
103 | ATTGCCTGGCATTATCAGTGCTGCCATTTG | -0.95
104 | AAGAGGTTAAAGACCTTTGGGTAGGAATAG | 1.47
105 | ACATTTGGTGTAAGCACTTGTGGTATGTTT | 1.98
106 | CACATGCTATTATTTTCCATCAGTGGACTT | 3.95
107 | TTTGGAAAAGATTAAGTTATCCATGGAGTG | 0.897
108 | TCTTAGGAAAGAACAGGTCAAAGGTCAGTT | 9.61
109 | ATCACAATCCTTAAGCAGCAGATAAGGCTA | -1.23
110 | TTTAATACCTCTGATCACTACAAGCTTTGA | -1.2
111 | AGCAGGATAGAAGGAAACAGTTCAGATCTG | -1.24
112 | TGAAGTGAAGTTACAAAGGTCACACACCTG | 4.94
113 | AAACACCCCTCCCCCACACAGACAAAGACA | 5.03
114 | GCCAGTGGGGGTTGGTCTCTAAAACCCCCA | 1.27
115 | AACAAAGATTGCTTGCCAGTTCCCTCACTG | -1.32
116 | ATGTTCTAACCATAGGAGGCTGGTCTAAGT | -0.241
117 | CTTTCATCTCGGCTGGCTACTGCTCCACCT | -1.35
118 | AAATATAGTTAAAGCCAGCTGTCTATCCTT | -1.38
119 | GTTCCACTGGTAACTAGGTTAATGTGAACA | 1.33
120 | AGGTAATAGGAAAAGGGAGTTTTCTGCTCT | -1.28
121 | AGGTCATCCTGGGCTACCGATATGAGGCTT | -1.23
122 | ACAATTGGCCAAAGTTCAGTAAATCTTAGA | 2.67
123 | TCTGTTATCAGACACAAGAATTACTACTCT | -1.2
124 | CCTCACCTCCAGGGAGGGGAGAGGGGGTTA | -1.2
125 | AGAACCTGCCCATGACCTTTGGACTGTGAC | 10.2

Row | Sequence | binding signal (log2 normalized intensity)
126 | GTAAGATAAGGTGAACATACGTGGCTACCT | -1.25
127 | CAATGCCACAGAAAAGGCAGCAGCTTGGAA | -1.32
128 | AGCAGAAAGGAGGCAGAGACTGCCCTGAGC | -1.12
129 | TTTGCAATCCTCCACTCTCCAAAATAGGGT | 0.272
130 | GGAAATTACCCTCTAATGGTATTCACTTTA | 0.569
131 | TGGAGATAACAGTGTAAGGACATTGCCCCC | 6.22
132 | ATGGACTTTGAAGGAGATTCCTGTGTCAGC | 1.23
133 | CAGCAGCTATCAGTGGTCCGAACTACAGGG | -1.27
134 | TGAACTTTGCCTTAGGCCATTGTCCTTTGG | 3.43
135 | GCAGAGCTATGGAATTTTGGCCTTTTTGTC | 1.84
136 | CTATTGGTTGTCAGACTGGTGTAGTGGGGA | 1.13
137 | ACACTTGTACATACTTTTGGGGTATGTGTG | 2.28
138 | AAATAGCTCAAGCCTGTTCCGACCTTAGTA | 2.01
139 | CGGACAGGCATTAGCAATGCGAGAGTACAC | -0.523
140 | CTGCCTAGTTTTGTAACTTAAAGATCATGT | 1.7
141 | GCATCTGGGGGCTTGTCAGACAAGTTGCAG | -1.21
142 | GACTGGAAGTTGCCCGAGCTGCCCTTTATC | 3.27
143 | CTCCGGGTAAAGGTGAAGGCTGACCACGGG | -0.56
144 | CTTGCCTCTGTGCTCCCAGTTCCCTCATTA | -0.174
145 | ATATGTTCGGGAGACATGTGGCCTTTGGTA | 3.47
